# Measurements as given in the supplement of paper PMC3334620.
# In all, about 33,000 sequences were measured (“E-score (-0.5 to 0.5)”: median about -0.053, highest 2% from about 0.37 on). The list shows a part of the results.
# Biological target: Hap1 (UniProt P0CE41)
# Assay: PBM E-score (8-mer binding enrichment) (E-score (-0.5 to 0.5)); higher = stronger / more preferred TF binding; most listed sequences are background and not binding sites
# Conditions: protein concentration: 200 nM; construct: GST-DNA-binding domain
# Outline: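 Bound GST-tagged yeast transcription factors, applied at about 100-200 nM to double-stranded universal all-10-mer Agilent arrays, were detected with fluorescent anti-GST. Scans were normalised with masliner. A modified Wilcoxon-Mann-Whitney statistic, the E-score, was assigned to each ungapped eight-base word pooled with its reverse complement by the Universal PBM Analysis Suite.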
# UniProt P0CE41, sequence (P0CE41 whole entry): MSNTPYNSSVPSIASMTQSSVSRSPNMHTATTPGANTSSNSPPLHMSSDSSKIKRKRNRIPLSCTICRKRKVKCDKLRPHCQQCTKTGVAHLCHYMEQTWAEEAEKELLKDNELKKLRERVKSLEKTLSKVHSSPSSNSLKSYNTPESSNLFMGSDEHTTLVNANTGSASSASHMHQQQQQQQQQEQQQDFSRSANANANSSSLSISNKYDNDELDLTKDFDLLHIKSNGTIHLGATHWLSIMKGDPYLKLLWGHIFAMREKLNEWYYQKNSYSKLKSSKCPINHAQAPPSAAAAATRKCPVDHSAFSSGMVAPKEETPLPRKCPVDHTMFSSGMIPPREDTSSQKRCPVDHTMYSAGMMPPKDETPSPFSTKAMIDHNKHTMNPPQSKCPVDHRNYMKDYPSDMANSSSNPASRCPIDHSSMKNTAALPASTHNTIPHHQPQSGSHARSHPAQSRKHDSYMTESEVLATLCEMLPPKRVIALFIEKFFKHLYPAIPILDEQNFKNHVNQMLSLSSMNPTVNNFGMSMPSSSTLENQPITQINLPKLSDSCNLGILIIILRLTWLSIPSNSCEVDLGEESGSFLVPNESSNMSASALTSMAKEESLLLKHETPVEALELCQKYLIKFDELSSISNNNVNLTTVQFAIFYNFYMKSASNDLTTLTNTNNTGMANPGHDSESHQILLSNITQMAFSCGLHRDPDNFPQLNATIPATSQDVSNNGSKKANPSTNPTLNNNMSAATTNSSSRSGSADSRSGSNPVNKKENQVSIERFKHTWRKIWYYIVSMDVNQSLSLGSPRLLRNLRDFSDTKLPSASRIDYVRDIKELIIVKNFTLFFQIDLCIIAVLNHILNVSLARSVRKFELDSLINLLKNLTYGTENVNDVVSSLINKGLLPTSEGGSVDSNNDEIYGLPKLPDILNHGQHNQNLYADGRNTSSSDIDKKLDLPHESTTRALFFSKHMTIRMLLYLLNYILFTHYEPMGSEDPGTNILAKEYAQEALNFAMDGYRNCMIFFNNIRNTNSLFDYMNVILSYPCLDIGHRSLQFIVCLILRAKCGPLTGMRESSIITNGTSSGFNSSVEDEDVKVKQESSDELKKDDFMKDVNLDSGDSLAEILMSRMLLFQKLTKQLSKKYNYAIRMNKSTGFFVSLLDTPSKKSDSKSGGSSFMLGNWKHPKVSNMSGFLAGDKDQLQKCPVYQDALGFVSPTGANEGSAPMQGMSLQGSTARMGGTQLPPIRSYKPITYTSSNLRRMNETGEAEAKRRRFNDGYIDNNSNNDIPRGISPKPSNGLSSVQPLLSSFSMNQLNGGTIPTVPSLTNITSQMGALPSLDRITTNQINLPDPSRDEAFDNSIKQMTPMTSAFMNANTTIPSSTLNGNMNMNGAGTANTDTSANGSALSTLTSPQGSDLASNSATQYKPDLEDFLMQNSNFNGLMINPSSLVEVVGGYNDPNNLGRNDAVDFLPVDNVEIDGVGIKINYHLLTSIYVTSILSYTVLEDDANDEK
row,Sequence,PBM E-score
1,GCAGAACA,-0.0762
2,AGCGTGAC,-0.162
3,CTCTTCCC,-0.144
4,CAGGAACC,-0.117
5,CACGTCAA,-0.209
6,ATATCCAT,-0.0163
7,AGATCTAT,-0.127
8,AATTGGTC,-0.00517
9,AAGCTTGG,-0.263
10,ACGCCATG,-0.261
11,CGCTGGTA,-0.115
12,AACCACCT,0.0117
13,AGGAGGAA,-0.218
14,ACCCAAGT,-0.113
15,AACTAGTC,-0.195
16,ATACTGGG,0.0868
17,AACGATCG,0.0439
18,AGCCTAAT,-0.204
19,AATATTAA,0.0835
20,ATATATGA,-0.0929
21,CGGTCCAG,0.176
22,AACAACGC,-0.11
23,ACGCTAGG,-0.299
24,CTTTCGTA,-0.158
25,GACGTACC,-0.0275

row,Sequence,PBM E-score
1,GCCAGGCA,0.0384
2,ACGTCAAA,-0.217
3,CACCCTTA,0.0502
4,GTATGATA,0.00294
5,GAAACTTC,0.143
6,ATCCGTCC,0.207
7,CGGGTACC,-0.0457
8,ATTTCCAC,0.149
9,AGCTCTTG,-0.345
10,ATTAAAGG,0.0303
11,AGTGCTGA,-0.188
12,ACGGCGGC,0.0766
13,CCCTTACC,-0.145
14,ACGAACCG,0.117
15,CCGCTAAA,0.365
16,CCCAGCCC,-0.174
17,AAGTATCG,0.201
18,GGATCCAA,0.178
19,GGAACGTA,-0.124
20,GCATTGCC,-0.0638
21,CGCGGAAG,0.181
22,AATAGTTC,-0.0332
23,ACCGGTGC,0.309
24,AATAACTC,0.125
25,AAGGCGGT,-0.226

row,Sequence,PBM E-score
1,AGGCTAGG,-0.29
2,TTGCACAA,-0.266
3,CGATCATC,0.186
4,AGCATGTG,-0.177
5,TACGCGAA,0.0315
6,CATGATGA,-0.217
7,AGGTCTTG,-0.0988
8,AAGGGGGA,-0.179
9,ATTGTATA,0.148
10,TGGCAACA,-0.207
11,CGGAGGAA,0.375
12,CAACAGGC,-0.212
13,AATCCAGT,0.219
14,CCTTAGGA,-0.0943
15,TATTTCAA,-0.255
16,AGGGCCCC,-0.176
17,TGAGCGCA,-0.178
18,CGCCCAGA,-0.189
19,ACCGTTTG,-0.0435
20,AGGGGTCC,-0.117
21,CCTGGCGA,-0.179
22,AAAGTTGC,-0.198
23,TACCGTCA,0.108
24,TAGCTCAA,-0.162
25,CATTGGGC,-0.228

row,Sequence,PBM E-score
1,ATCCTTCA,-0.199
2,GACTTCAC,0.069
3,GCACTCAC,-0.175
4,GCGAGCGC,0.137
5,GGCTTAAA,0.165
6,CTCTCAAA,-0.231
7,AAGCTGGT,-0.198
8,TGAAGCCA,-0.215
9,ATAACAGC,0.157
10,CCACGTTC,-0.0716
11,ATTGCTTG,-0.285
12,GGTAAGGA,-0.157
13,CGTCCACC,-0.0148
14,AAAACAAT,-0.025
15,TCACGCCA,-0.166
16,GTCCAAGA,-0.271
17,AATAATAA,-0.00534
18,AGACTCCA,-0.28
19,AAGTACCA,-0.0621
20,TATAGGCA,-0.161
21,TAGTTGAA,-0.138
22,AATTAAAT,-0.0668
23,CAGCCGAG,0.238
24,CCATTTCC,0.113
25,GCGTTTTA,-0.0109

row,Sequence,PBM E-score
1,CACGATAC,0.0318
2,CTGTCTCA,-0.152
3,CAATATCC,0.239
4,CCGGCTCC,0.296
5,AGTGCGGA,0.237
6,AGGGCCAC,-0.161
7,GTTCGACA,-0.159
8,AAACAGAT,-0.145
9,AGCTTTGG,-0.135
10,ACGTAATG,-0.0643
11,AGGGTCCC,-0.138
12,ATCCCTGA,-0.189
13,GCGAAGCC,0.027
14,CCGAAAAG,0.311
15,GTGCCAAC,-0.089
16,TAAACTTA,-0.18
17,CTGTTTCA,-0.205
18,ATGGGAGA,-0.315
19,GGAGAACC,0.141
20,AGGCGCGG,0.0699
21,AAAATCGT,-0.036
22,CAGAGCGC,-0.16
23,AGATCCAT,-0.00855
24,GATTAGGA,0.0759
25,CTCAGGAA,-0.108

row,Sequence,PBM E-score
1,AGTTTAAG,-0.206
2,CTGAGACA,-0.237
3,TTAAGCAA,-0.0763
4,CCGCGTTA,0.219
5,ATCCAGTG,-0.0388
6,TAATTCTA,-0.0424
7,GCGCTCGA,0.05
8,CTCCTGGA,-0.254
9,GCCGGACA,0.423
10,ACGTCGGG,0.28
11,GACTGTGA,-0.22
12,AGCCCATA,-0.133
13,AGGATTCC,-0.0591
14,CTAGATGC,-0.224
15,CCATCTCC,0.209
16,GGCCGCCA,0.0115
17,AGCTCTTA,-0.0357
18,AGGAACCT,-0.136
19,ATGTTATA,-0.135
20,ATAGGCAA,-0.214
21,ACTCGCTC,-0.0161
22,AAATGAAA,0.0924
23,AGGCTTAA,-0.0524
24,CGTCGGAA,0.306
25,CGACTCGA,-0.0777

row,Sequence,PBM E-score
1,CAAGAACA,-0.233
2,GGTATGTA,0.0143
3,ATCTCCGC,0.455
4,CCACTTGC,-0.183
5,ACCCATCT,-0.0427
6,ACGAGGGA,-0.116
7,CGCAAAGC,0.189
8,CTCCGAAA,0.41
9,GAGATGGA,0.00614
10,CGGAGGGA,0.255
11,GAGAAACA,0.0153
12,GAGTGTGA,-0.176
13,CGGCCAAC,0.214
14,ATCCCTAA,-0.191
15,AAAGCCGC,0.305
16,GCAGCGGC,-0.00312
17,CACACGTA,-0.285
18,CCGTTGCG,0.198
19,ACGGTTAT,0.117
20,CAATGAGA,-0.207
21,ACCGTCCT,-0.0937
22,ACCAGGTA,-0.0386
23,AAATTGGA,-0.051
24,AACGATTG,-0.0367
25,AGGTAGTG,-0.102

row,Sequence,PBM E-score
1,CCTTGGAG,-0.109
2,GCGGGAAA,0.195
3,GAATTACA,0.0547
4,ATGTCGGA,0.348
5,GGCTGAAA,0.0341
6,CTCTCGCC,-0.00995
7,AGATCGAA,0.00519
8,CGTGACCC,0.0718
9,AGTGGCCG,0.268
10,CCCATCGC,0.0391
11,GTTTCTTA,-0.0575
12,AAAAGGTT,-0.211
13,ATTCATCC,0.0829
14,AGATAGTC,-0.0926
15,CCATAATA,0.0593
16,CCCTGAGG,-0.266
17,CAGTGATC,-0.119
18,TCTAGAGA,-0.337
19,CGTATTAG,0.00416
20,ACAATCGA,-0.15
21,ACGCGCGG,0.196
22,CTCATAGA,-0.236
23,TATACTGA,0.0129
24,ACAAAGTG,-0.127
25,ATGAGGAC,-0.104

row,Sequence,PBM E-score
1,GCCATCGC,-0.0154
2,CGTTTGCC,0.114
3,AGATAATG,0.0272
4,ATTATTAA,0.154
5,TGAAAAAA,-0.0471
6,CACGCCGG,0.311
7,AAGTGCAA,-0.176
8,TGTGATAA,-0.15
9,TGATTCAA,-0.12
10,CACATGGA,-0.249
11,TCGCCCAA,-0.162
12,ATGAATAC,-0.0929
13,CAACCGGG,0.262
14,GAATAAAA,0.0566
15,AGTCACCC,-0.139
16,CGTCGGTA,0.0831
17,TCCTAAGA,-0.0703
18,ATATGATG,-0.111
19,GTTGTAAA,-0.135
